Results from PubChem BioAssay AID1745845 (National Center for Advancing Translational Sciences (NCATS), 2022).
Several values for one entry are separate records, joined by “and”; a condition that tells them apart may be missing. Identical values can stand only once. The campaign covered roughly 360,000 compounds. About 2,600 (0.72%) were called active. Inconclusive means that the source gave no clear call. Such entries were picked first, then a sample of the others. Calls come from the whole dose curve; as a rule, active = well fitted inhibition curve with a large enough effect; inconclusive = small, poorly fitted or top-dose-only effect; inactive = no such curve, though single readings can be large or run the other way. Where the call is inconclusive, the potency comes from a doubtful curve fit.

assay: Primary qHTS for Inhibitors of ATXN expression; conditions: HEK-293 ATXN2-luciferase reporter, luminescence, 24 h; activity change, negative = inhibition: at 57 µM (top of the series); note: nearly all actives have a fitted effect of over 55% in size
Text: University of Utah School of Medicine, Salt Lake City, Utah
Spinocerebellar ataxia type 2 (SCA2) is a multisystem neurodegenerative disease caused by a dominantly acting mutation leading to expansion of a polyQ domain in the ataxin-2 protein (ATXN2). SCA2 patients develop progressive ataxia and later lose function in other neuronal systems. Prominent parkinsonian signs develop in some patients. Like many neurodegenerative disorders, no symptomatic or disease-modifying treatments are known.
The primary objective of the proposed research is to identify compounds inhibiting ATXN2 expression and to test them for efficacy in SCA2 mouse models. We have developed a cell-based assay paired with an in vivo mouse model using identical luciferase expression constructs. This approach takes advantage of an ATXN2-luciferase transgene, with the luciferase gene flanked by the upstream and downstream portions of the ATXN2 gene. Here we describe a 5-7 dose quantitative high thoroughput screen (qHTS) for compounds lowering ATXN2 expression. We screened the NIH Molecular Libraries Small Molecule Repository (MLSMR) and NCGC's mechanistically annotated (MIPE) and drug repurposing (NPC) collections of compounds for lowering expression of an ATXN2-luciferase reporter in HEK-293 cells. The assay is a multiplexed cell viability assay to ensure target reduction in the absence of cytotoxicity. Secondary qHTS assays included a CMV-luciferase reporter expressed in HEK-293 cells as well as a biochemical assay using recombinant luciferase to detect inhibitors of the reporter enzyme. Compounds that inhibit ATXN2 expression but is not cytotoxic were selected for confirmatory and secondary screens.
PROTOCOL TABLE (as described by Inglese J, Shamu CE and Guy RK. 2007)
SEQUENCE No. (e.g., 1, 2, 3, etc.); […] (e.g., Cells, Incubation, Reagent, etc.); VALUE; DESCRIPTION.
1; Cells; 4 uL; white, solid bottom, 1536-well Greiner assay plate.
2; Incubation; 2 hr; 37 degree C in 5% humidified CO2.
3; Compounds; 23 nL; Kalypsis pintool (Wako USA) equipped with a 1536-well pin head.
4; Incubation; 24 hr; 37 degree C in 5% humidified CO2.
5; Reagent; 1 uL; Gly-Phe-7-Amino-4-trifluoromethylcoumarin.
6; Incubation; 30 min; 37 degree C in 5% humidified CO2.
7; Detection; Fluorescence; ViewLux plate reader (PerkinElmer).
8; Reagent; 3 uL; SteadyGlo luciferase solution (Promega).
9; Incubation; 5 min; room temperature.
10; Detection; Luminescence; ViewLux plate reader (PerkinElmer).
NOTES (numbers refer to Sequence numbers above)
1. S2 cells expressing ATXN2-luciferase reporter were suspended in phenol-red free DMEM and dispensed in assay plates using a Multidrop Combi dispenser (Thermo Fisher Scientific).
2. Assay plates were incubated. Evaporation was prevented by covering assay plates with metal lids containing holes to allow gas diffusion.
3. Compounds were added in a dose response manner with the final concentrations of 57, 11.4, 2.28, 0.46, 0.091, 0.018, 0.0037 uM. Vehicle-only plates, with DMSO being pin-transferred to columns 5-48, were inserted uniformly at the beginning and the end of each library to monitor and record any shifts in assay performance.
5. 125 uM Gly-Phe-7-Amino-4-trifluoromethylcoumarin (MP Biomedicals) working concentration was used at a final concentration of 25 uM.
7. To assess cell viability; the assay plates were read using the ViewLux high-throughput CCD imager (PerkinElmer), wherein single end-point fluorescence measurement was acquired (excitation 405/10; emission 540/25 nm).
8. Detection reagent SteadyGlo Luciferase (Promega) was added to the assay plate.
10. Luminescence is then measured on the ViewLux imager equipped with a clear emission filter using a 2 sec exposure. All screening operations were performed on a fully integrated robotic system (Kalypsys) containing one RX-130 and two RX-90 anthropomorphic robotic arms (Staubli).
[…]
% is set by controls: 0 for no effect and ±100 for the full control effect; potency is the fitted concentration of half-maximal effect; tags give direction and shape of the fitted curve.

Row | SMILES | Potency | activity change, negative = inhibition
1 | COC(=O)C1=C(c2ccc(Cl)c(C(F)(F)F)c2)C[C@@H]2CC[C@H]1N2C(=O)NCCOc1ccccc1Cl | inconclusive: 39.8 µM [inhibitor, single point] | –
2 | NC(Cc1ccc(O)cc1)C(=O)NN=Cc1ccc(N(CCCl)CCCl)cc1 (configuration not stated) | inconclusive: 15 µM [inhibitor, partial curve, poor fit] | –
3 | CC(=O)c1ccc(NC(=O)c2sc3nc4c(cc3c2N)N2CCC4CC2)cc1 | inconclusive: 35.5 µM [inhibitor, single point] | –
4 | CCn1nc(-c2ccccc2)nc2c(=O)n(C)c(=O)nc1-2 | active: 28.2 µM | –
5 | Nc1ccccc1C(=O)OCC(O)CO (configuration not stated) | inactive | –
6 | CC(C)(C)c1cc(C=C(C#N)C#N)cc(C(C)(C)C)c1O | inconclusive: 0.708 µM [inhibitor, full curve] | –
7 | COc1ccc(-[n+]2c(-c3ccccc3)cc(-c3ccccc3)cc2-c2ccccc2)cc1 | inconclusive: 5.62 µM [inhibitor, full curve, poor fit] | –
8 | C[C@@H]1C[C@@H]([C@H](O)CC2CC(=O)NC(=O)C2)C(=O)[C@@H](C)C1 | active: 1.12 µM and active: 769 nM and active: 1.26 µM | –
9 | Cc1sc2ncnc(N3CCC(C(=O)Nc4ccc(C#N)c(Cl)c4)CC3)c2c1C | inconclusive: 28.2 µM [inhibitor, single point] | –
10 | CCCCN1C(=O)NC(=O)C2(Cc3c(nc4c(C)cccn4c3=O)N3CCc4ccccc4C32)C1=O (configuration not stated) | inactive | –
11 | COC(=O)C1=C(c2ccc(C(C)=O)cc2)C[C@@H]2CC[C@H]1N2C(=O)NCC1CC1 | inactive | –
12 | C[n+]1ccc(-c2ccncc2)cc1 | inactive | –
13 | COc1ccc(CNCCc2c(C)[nH]c3ccc(OC(F)(F)F)cc23)c(OC)c1 | – | inconclusive: -92.9% [inhibitor]
14 | CCCCCN1C(=O)c2ccccc2[C@@]2(C(=O)OCC)Cc3cc(OC)ccc3[C@@H]12 | inconclusive: 22.4 µM [inhibitor, single point] | –
15 | CCCCCCC(Cl)(Cn1ccnc1)c1ccccc1 (configuration not stated) | inconclusive: 37.7 µM [inhibitor, single point] | –
16 | CN1[C@@H]2CC[C@H]1CC(OC(=O)c1cc(Cl)cc(Cl)c1)C2 (some centres not stated) | inconclusive: 31.6 µM [inhibitor, single point] | –
17 | O=c1[nH]c2ccccc2n1C1CCN(C(c2cccs2)c2nnnn2-c2ccc3c(c2)OCCO3)CC1 (configuration not stated) | inconclusive: 11.2 µM [inhibitor, partial curve] | –
18 | CCOC(=O)[C@]12Cc3cc(Cl)ccc3[C@H]1N(C)C(=O)c1cc(OC)ccc12 | inconclusive: 39.8 µM [inhibitor, single point] | –
19 | COC(=O)C1=C(c2cccc(OC)c2OC)C[C@@H]2CC[C@H]1N2C(=O)NCc1cccc2ccccc12 | inactive | –
20 | Cc1cccc(CN2C(=O)CN=C(c3ccccc3Cl)c3cc(Cl)ccc32)c1 | inconclusive: 39.8 µM [inhibitor, single point] | –
21 | COC(=O)C1=C(c2ccccc2OCc2ccccc2)C[C@@H]2CC[C@H]1N2C(=O)NCc1ccc(Cl)cc1 | inconclusive: 20 µM [inhibitor, partial curve, poor fit] | –

Row | SMILES | Potency | activity change, negative = inhibition
22 | CC(N)Cc1c[nH]c2ccc(Cl)cc12 (configuration not stated) | inactive | –
23 | COC1C(C)OC(OC2CC(C)(O)Cc3cc4c(c(O)c32)C(=O)c2c(O)cc3c(c2C4=O)OC2OC3(C)C(O)C(N(C)C)C2O)C(OC)C1(C)OC (configuration not stated) | inconclusive: 16.8 µM [inhibitor, partial curve, poor fit] | –
24 | O=C(c1cccc2ccccc12)C1CCCN(Cc2ccon2)C1 (configuration not stated) | inactive | –
25 | O=C(c1ccc2c(c1)N(Cc1c(F)cccc1Cl)C(=O)c1ccccc1S2)N1CCC2(CC1)OCCO2 | inactive | –
26 | CCNC(=O)C1OC(n2cnc3c(N)ncnc32)C(O)C1O (configuration not stated) | inactive | –
27 | O=C(Nc1ccc(OC(F)(F)F)cc1)c1cccn(Cc2ccccc2Cl)c1=O | inactive | –
28 | CCCCCn1c(=O)c(C(=O)NCc2ccncc2)c(O)c2ccccc21 | inconclusive: 39.8 µM [inhibitor, single point] | –
29 | COc1cc2c(cc1OC)[C@@H]1C(=O)c3ccc4c(c3O[C@@H]1CO2)C[C@H](C(C)C)O4 | inconclusive: 5.62 µM [inhibitor, partial curve, poor fit] | –
30 | Cc1ccc(CN2CCCC(C(=O)c3cccc(C(F)(F)F)c3)C2)o1 (configuration not stated) | inactive | –
31 | CCOP(=S)(OCC)SCC(=O)NC(C(=O)O)C(C)C (configuration not stated) | inactive | –
32 | Oc1ccc(C2=CCNCC2)cc1O | inactive | –
33 | CC(CC(C)(C)N1CC1)=NNC(=O)Nc1cccc2ccccc12 | inconclusive: 28.2 µM [inhibitor, single point] | –
34 | C=C[C@@H]1CN2CCC1C[C@@H]2[C@@H](O)c1ccnc2ccccc12 (some centres not stated) | inconclusive: 30.6 µM [inhibitor, partial curve] | –
35 | COc1ccc(-n2nnnc2C(c2cccc(OC)c2OC)N2CCC(n3c(=O)[nH]c4ccccc43)CC2)cc1 (configuration not stated) | inactive | –
36 | COC(=O)C1=C(c2ccc(-c3ccccc3)c(F)c2)C[C@@H]2CC[C@H]1N2C(=O)NC(C)C | inconclusive: 31.6 µM [inhibitor, single point] | –
37 | O=C1NCN(c2ccccc2)C12CCN(C(c1cc3ccccc3o1)c1nnnn1C1CCCC1)CC2 (configuration not stated) | inconclusive: 39.8 µM [inhibitor, single point] | –
38 | CN(C(=O)Oc1ccc(C(=O)c2ccc(Cl)cc2)cc1)c1ccccc1 | inactive | –
39 | COc1ccc2c(c1)NP(=S)(c1ccccc1)N2C (configuration not stated) | inconclusive: 1.41 µM [inhibitor, partial curve, poor fit] | –
40 | COc1ccc(-c2nn(CCC#N)cc2C(=O)NCc2ccccc2)cc1[N+](=O)[O-] | – | inconclusive: -42.3% [inhibitor]
41 | CC(=O)OC1C(O)C(C)OC(OC2C(OC(=O)C3CCC4C(C3)OC3(CC(OC(=O)/C=C/c5ccccc5)C(C)CO3)C43CO3)OC(C)C(O)C2OC(C)=O)C1O (configuration not stated) | active: 0.212 µM | –
42 | Brc1ccc(-[n+]2c(-c3ccccc3)cc(-c3ccccc3)cc2-c2ccccc2)cc1 | inconclusive: 39.8 µM [inhibitor, partial curve, poor fit] | –
